One experiment addresses T1, Recombinant human PD-L1 (human, UniProt Q9NZQ7 fragment).
T1 construct: Bought protein; also called hPD-L1
Nature of the experiment: ELISA, plate coated with recombinant human PD-L1, anti-human HRP detection.

In a further experiment the target is T2, Recombinant human CTLA-4 (human, UniProt P16410 37-162).
T2 construct: Bought protein; also called hCTLA-4
T2 sequence (looked up): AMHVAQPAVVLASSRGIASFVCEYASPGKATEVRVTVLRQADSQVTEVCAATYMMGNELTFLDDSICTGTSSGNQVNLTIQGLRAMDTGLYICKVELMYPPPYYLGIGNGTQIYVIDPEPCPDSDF
Nature of the experiment: ELISA, plate coated with recombinant human CTLA-4, anti-human HRP detection. (In general: An ELISA detects its analyte on a solid surface through an enzyme-linked reagent.)

Another experiment concerns the target T3, VEGFR2 (UniProt P35968 20-764).
T3 construct: Bought protein
Nature of the experiment: SPR (Biacore T100), fusion protein captured by anti-IgG on CM5 chip, antigen injected. (In general: In SPR one partner is held on a chip, and binding of the other changes the refractive index at the surface.)

The target of the next experiment is T4, VEGF165 (human, UniProt P15692-4 27-191).
T4 construct: Bought protein; also called VEGF-A; human-VEGF-A
T4 sequence (looked up): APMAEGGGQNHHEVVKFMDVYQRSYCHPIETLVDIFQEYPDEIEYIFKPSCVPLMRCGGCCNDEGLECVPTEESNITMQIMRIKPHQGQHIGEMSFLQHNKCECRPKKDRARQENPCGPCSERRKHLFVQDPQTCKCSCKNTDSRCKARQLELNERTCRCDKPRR
Described as above.

The target in a further experiment is T5, Mouse VEGF164 (mouse, UniProt Q00731-2 27-190).
T5 construct: Bought protein; also called mouse VEGF-A
T5 sequence (looked up): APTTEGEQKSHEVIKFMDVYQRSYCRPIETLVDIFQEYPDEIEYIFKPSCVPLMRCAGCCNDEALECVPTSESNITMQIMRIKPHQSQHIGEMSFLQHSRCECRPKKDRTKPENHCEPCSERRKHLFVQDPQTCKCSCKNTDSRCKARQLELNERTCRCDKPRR
The description is as above.

Chain of VEGFR2 (P35968 20-764 limits assumed): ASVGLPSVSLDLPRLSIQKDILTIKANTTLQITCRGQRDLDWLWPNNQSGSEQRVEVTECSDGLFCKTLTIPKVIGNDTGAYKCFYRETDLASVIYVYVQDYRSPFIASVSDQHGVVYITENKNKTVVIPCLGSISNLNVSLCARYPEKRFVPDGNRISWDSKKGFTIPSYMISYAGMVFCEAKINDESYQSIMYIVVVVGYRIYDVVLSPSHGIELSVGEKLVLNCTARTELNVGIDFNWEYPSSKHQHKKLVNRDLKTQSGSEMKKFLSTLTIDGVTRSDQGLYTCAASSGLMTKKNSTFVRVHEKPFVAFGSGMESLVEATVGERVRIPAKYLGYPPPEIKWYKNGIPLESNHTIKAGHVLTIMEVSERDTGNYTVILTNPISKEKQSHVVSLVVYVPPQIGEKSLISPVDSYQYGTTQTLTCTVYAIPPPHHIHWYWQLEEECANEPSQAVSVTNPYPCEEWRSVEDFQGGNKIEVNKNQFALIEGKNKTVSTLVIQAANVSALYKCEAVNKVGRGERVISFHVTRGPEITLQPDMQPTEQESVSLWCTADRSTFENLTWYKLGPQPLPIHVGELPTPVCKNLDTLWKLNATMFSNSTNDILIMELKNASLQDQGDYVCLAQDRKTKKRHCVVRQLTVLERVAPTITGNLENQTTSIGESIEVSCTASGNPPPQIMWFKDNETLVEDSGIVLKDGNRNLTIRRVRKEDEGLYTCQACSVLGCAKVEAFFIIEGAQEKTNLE
Chain of Recombinant human PD-L1 (Q9NZQ7 19-238 limits assumed): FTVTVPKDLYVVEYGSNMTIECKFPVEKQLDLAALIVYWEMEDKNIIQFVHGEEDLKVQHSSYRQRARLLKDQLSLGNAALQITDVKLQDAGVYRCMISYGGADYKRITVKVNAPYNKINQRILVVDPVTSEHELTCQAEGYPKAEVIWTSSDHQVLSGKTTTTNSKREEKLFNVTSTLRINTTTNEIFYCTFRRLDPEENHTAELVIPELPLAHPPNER

B1: Fusion protein BY24.5 (other)
light: DIQMTQSPSSVSASIGDRVTITCRASQGIDNWLGWYQQKPGKAPKLLIYDASNLDTGVPSRFSGSGSGTYFTLTISSLQAEDFAVYFCQQAKAFPPTFGGGTKVEIKRTVAAPSVFIFPPSDEQLKSGTASVVCLLNNFYPREAKVQWKVDNALQSGNSQESVTEQDSKDSTYSLSSTLTLSKADYEKHKVYACEVTHQGLSSPVTKSFNRGEC
heavy: EVQLVQSGGGLVKPGGSLRLSCAASGFTFSSYSMNWVRQAPGKGLEWVSSISSSSSYIYYADSVKGRFTISRDNAKNSLYLQMNSLRAEDTAVYYCARVTDAFDIWGQGTLVTVSSASTKGPSVFPLAPCSRSTSESTAALGCLVKDYFPEPVTVSWNSGALTSGVHTFPAVLQSSGLYSLSSVVTVPSSSLGTKTYTCNVDHKPSNTKVDKRV[human IgG4 Fc with S228P (EU numbers) left out here]GGGSGGGGSGGGGSVIHVTKEVKEVATLSCGHNVSVEELAQTRIYWQKEKKMVLTMMSGDMNIWPEYKNRTIFDITNNLSIVILALRPSDEGTYECVVLKYEKDAFKREHLAEVTLSVKADFPTPS
notes: Full-length anti-VEGFR antibody (kappa, IgG4) with CD80 IgV fused through a (G4S)3 linker to the C-terminus of each heavy chain; also called anti-VEGFR antibody-CD80 fusion protein; BY24.5 (κ, IgG4)
B1: in the experiment with Recombinant human PD-L1, the EC50 stood at 5.17 µg/mL. The EC50 with Recombinant human CTLA-4 stood at 3.75 µg/mL. Further, in the experiment with VEGFR2, the dissociation constant (Kd) is 0.0817 nM, the koff was found to be 5.57e-05 s⁻¹ and the kon turned out to be 682000 M⁻¹ s⁻¹.

B2: Fusion protein BY31.19 (Fc fusion)
chain: VIHVTKEVKEVATLSCGHNVSVEELAQTRIYWQKEKKMVLTMMSGDMNIWPEYKNRTIFDITNNLSIVILALRPSDEGTYECVVLKYEKDAFKREHLAEVTLSVKADFPTPSDKRV[human IgG4 Fc with S228P (EU numbers) left out here]
notes: Positive control in the ELISA; also called CD80-Fc fusion protein; CD80-Fc, IgG4
For the molecule B2, the EC50 in the experiment with Recombinant human PD-L1 is 2.2 µg/mL; with Recombinant human CTLA-4 it was 1.92 µg/mL.

B3: Fusion protein BY24.12 (Fc fusion)
chain: VIHVTKEVKEVATLSCGHNVSVEELAQTRIYWQKEKKMVLTMMSGDMNIWPEYKNRTIFDITNNLSIVILALRPSDEGTYECVVLKYEKDAFKREHLAEVTLSVKADFPTPSDKRV[human IgG4 Fc with S228P (EU numbers) left out here]GGGSGGGGSGGGGSASDTGRPFVEMYSEIPEIIHMTEGRELVIPCRVTSPNITVTLKKFPLDTLIPDGKRIIWDSRKGFIISNATYKEIGLLTCEATVNGHLYKTNYLTHRQTNTIIDVVLSPSHGIELSVGEKLVLNCTARTELNVGIDFNWEYPSSKHQHKKLVNRDLKTQSGSEMKKFLSTLTIDGVTRSDQGLYTCAASSGLMTKKNSTFVRVHE
notes: also called CD80-Fc-VEGFR fusion protein
Take B3: the EC50 with Recombinant human PD-L1 turned out to be 3.75 µg/mL. Further, in the experiment with Recombinant human CTLA-4, the EC50 worked out at 2.89 µg/mL. Besides, in the experiment with VEGF165, the Kd stood at 0.0398 nM, the koff amounted to 0.000125 s⁻¹ and the kon came out at 3.15e+06 M⁻¹ s⁻¹. In the experiment with Mouse VEGF164, binding was characterised by a dissociation constant (Kd) of 0.0341 nM, the koff came out at 3.13e-05 s⁻¹ and the kon amounted to 918000 M⁻¹ s⁻¹.

By EC50 is commonly meant the concentration giving half of the maximal effect. What is called Kd is the constant that tells how readily two partners part at equilibrium. Higher therefore signals weaker binding. For orientation: koff means a measure of how fast the partners let go of each other. Higher therefore signals fast dissociation. One may read the kon as a measure of how fast the partners come together. Low readings indicate slow association, high ones fast association.

For the origin of these results see patent US20220106389A1 (BEIJING BEYOND BIOTECHNOLOGY, published 2022).
